{"source": "the BET-seq Pho4 binding data (Le et al. 2018)", "note": "Some of the results follow. These are noisy estimates, calculated here from bound and input reads."}
{"target": "T1, Pho4 (S. cerevisiae) (UniProt P07270)", "T1 sequence": "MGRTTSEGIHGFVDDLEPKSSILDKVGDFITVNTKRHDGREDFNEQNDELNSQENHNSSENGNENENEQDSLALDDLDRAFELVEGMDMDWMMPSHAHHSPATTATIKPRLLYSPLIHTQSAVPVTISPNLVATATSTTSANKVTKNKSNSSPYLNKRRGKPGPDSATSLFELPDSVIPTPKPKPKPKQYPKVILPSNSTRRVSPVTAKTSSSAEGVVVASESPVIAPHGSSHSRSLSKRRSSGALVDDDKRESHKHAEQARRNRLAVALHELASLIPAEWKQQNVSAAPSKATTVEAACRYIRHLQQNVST", "experiment": "relative binding free energy (BET-seq); higher = weaker binding", "details": "reference: library average", "units": {"relative binding free energy": "kcal/mol"}}
{"sequence": "TAAACCACGTGGAGGG", "relative binding free energy": 0.03}
{"sequence": "CGGGTCACGTGGGGGT", "relative binding free energy": -0.07}
{"sequence": "GCTTCCACGTGGGGGT", "relative binding free energy": -0.1}
{"sequence": "GGGATCACGTGGGGCT", "relative binding free energy": 0.14}
{"sequence": "AGGATCACGTGTAAGT", "relative binding free energy": 0.1}
{"sequence": "TTATGCACGTGATGGG", "relative binding free energy": 0.12}
{"sequence": "GTGGACACGTGGGGTC", "relative binding free energy": -0.15}
{"sequence": "TGGTACACGTGGGTAT", "relative binding free energy": -0.07}
{"sequence": "GTTAGCACGTGCGTTG", "relative binding free energy": -0.02}
{"sequence": "GAAGCCACGTGTGTTG", "relative binding free energy": 0.05}
{"sequence": "TGTCGCACGTGATGAA", "relative binding free energy": 0.37}
{"sequence": "CGTTTCACGTGAGCTG", "relative binding free energy": 0.47}
{"sequence": "GTGGGCACGTGGGTCG", "relative binding free energy": -0.16}
{"sequence": "GGGTGCACGTGACGTC", "relative binding free energy": 0.15}
{"sequence": "GTGGGCACGTGATATT", "relative binding free energy": 0.13}
{"sequence": "GGTTGCACGTGATCGT", "relative binding free energy": 0.1}
{"sequence": "CCTTTCACGTGTTTTT", "relative binding free energy": 0.14}
{"sequence": "CGGGTCACGTGCTGGT", "relative binding free energy": 0.11}
{"sequence": "GTGAACACGTGGGGGC", "relative binding free energy": -0.08}
{"sequence": "TGGATCACGTGATTTT", "relative binding free energy": 0.28}
{"sequence": "TGTGTCACGTGTGAAG", "relative binding free energy": 0.21}
{"sequence": "TATAGCACGTGGGCGA", "relative binding free energy": -0.17}
{"sequence": "TTTCGCACGTGCTTGT", "relative binding free energy": -0.08}
{"sequence": "GGTGGCACGTGTCAAG", "relative binding free energy": -0.12}
{"sequence": "GAGATCACGTGCTGGG", "relative binding free energy": 0.24}
{"sequence": "TGGCGCACGTGGCGGG", "relative binding free energy": -0.18}
{"sequence": "AGCCTCACGTGTTGGG", "relative binding free energy": 0.16}
{"sequence": "GGACGCACGTGTTTTT", "relative binding free energy": -0.02}
{"sequence": "TGAGCCACGTGTGGGG", "relative binding free energy": 0.06}
{"sequence": "ATAAACACGTGTTGTT", "relative binding free energy": -0.1}
{"sequence": "AAAGTCACGTGTGTTG", "relative binding free energy": 0.17}
{"sequence": "GTGAACACGTGGGTGT", "relative binding free energy": -0.07}
{"sequence": "TTGTCCACGTGGAGTT", "relative binding free energy": 0.06}
{"sequence": "AAATGCACGTGGGGAG", "relative binding free energy": -0.15}
{"sequence": "TAGTTCACGTGAGAGT", "relative binding free energy": 0.55}
{"sequence": "ACGTGCACGTGGGATG", "relative binding free energy": -0.13}
{"sequence": "TGTTTCACGTGTACGA", "relative binding free energy": 0.25}
{"sequence": "ATTTTCACGTGTCTTA", "relative binding free energy": 0.27}
{"sequence": "GGGTTCACGTGACAAG", "relative binding free energy": 0.49}
{"sequence": "TTGTACACGTGGGCCT", "relative binding free energy": -0.04}
{"sequence": "CTGCTCACGTGGTTGG", "relative binding free energy": 0.13}
{"sequence": "GTATTCACGTGTTCGG", "relative binding free energy": 0.27}
{"sequence": "GGATGCACGTGGTATA", "relative binding free energy": -0.03}
{"sequence": "GTGTTCACGTGGTCTC", "relative binding free energy": 0.21}
{"sequence": "ATTTGCACGTGAGGTG", "relative binding free energy": 0.15}
{"sequence": "AGGTACACGTGTGTCG", "relative binding free energy": -0.04}
{"sequence": "GGTTGCACGTGGCGCC", "relative binding free energy": 0.05}
{"sequence": "AATGGCACGTGCGAAG", "relative binding free energy": 0.05}
{"sequence": "GAATGCACGTGTTGCT", "relative binding free energy": 0.09}
{"sequence": "GTTTACACGTGTTAGT", "relative binding free energy": 0.26}
{"sequence": "TGGAGCACGTGGGCCG", "relative binding free energy": -0.21}
{"sequence": "TTATCCACGTGGGATT", "relative binding free energy": 0.03}
{"sequence": "TGGATCACGTGCGGGG", "relative binding free energy": 0.05}
{"sequence": "CAATTCACGTGTAGGT", "relative binding free energy": 0.26}
{"sequence": "TAATTCACGTGGTACG", "relative binding free energy": 0.24}
{"sequence": "ATCGGCACGTGAAGTT", "relative binding free energy": 0.17}
{"sequence": "GGGTTCACGTGGTAAA", "relative binding free energy": 0.28}
{"sequence": "CGCGGCACGTGGGTGC", "relative binding free energy": -0.34}
{"sequence": "AATAACACGTGTGTGG", "relative binding free energy": -0.1}
{"sequence": "CATTGCACGTGGGATT", "relative binding free energy": -0.08}
{"sequence": "TACTGCACGTGTGGAG", "relative binding free energy": 0.07}
{"sequence": "GTCTGCACGTGTATGG", "relative binding free energy": 0.18}
{"sequence": "CAGTGCACGTGTTATG", "relative binding free energy": 0.08}
{"sequence": "GTTGTCACGTGAGTCA", "relative binding free energy": 0.29}
{"sequence": "AGGATCACGTGGGGCG", "relative binding free energy": 0.03}
{"sequence": "ATGGTCACGTGTTCAG", "relative binding free energy": 0.11}
{"sequence": "TATTGCACGTGGCCTT", "relative binding free energy": 0}
{"sequence": "TATTTCACGTGGCTTG", "relative binding free energy": 0.24}
{"sequence": "GGTATCACGTGGGGGA", "relative binding free energy": 0.13}
{"sequence": "TGTGCCACGTGGCTGT", "relative binding free energy": -0.11}
{"sequence": "GTTTGCACGTGATTGA", "relative binding free energy": 0.19}
{"sequence": "AAAGGCACGTGGTAGG", "relative binding free energy": -0.21}
{"sequence": "TTTTGCACGTGCAATG", "relative binding free energy": -0.01}
{"sequence": "TCACGCACGTGGGTGA", "relative binding free energy": -0.21}
{"sequence": "TGTTCCACGTGTGTGA", "relative binding free energy": 0}
{"sequence": "CTCAGCACGTGGGGGG", "relative binding free energy": -0.28}
{"sequence": "AATATCACGTGGTTAG", "relative binding free energy": -0.04}
{"sequence": "GCTTACACGTGAATGG", "relative binding free energy": 0.29}
{"sequence": "TAATTCACGTGGTGCA", "relative binding free energy": 0.16}
{"sequence": "ATAGTCACGTGATTGC", "relative binding free energy": 0.13}
{"sequence": "TTCTACACGTGTGGCT", "relative binding free energy": 0.12}
{"sequence": "GGGGCCACGTGGGCTC", "relative binding free energy": -0.01}
{"sequence": "GCTGTCACGTGGTATA", "relative binding free energy": 0}
{"sequence": "TGAAGCACGTGGGCGT", "relative binding free energy": -0.23}
{"sequence": "ACCTTCACGTGTTGGT", "relative binding free energy": 0.21}
{"sequence": "AAATGCACGTGTATGG", "relative binding free energy": -0.11}
{"sequence": "TGTTGCACGTGTATTT", "relative binding free energy": 0.04}
{"sequence": "GGCTGCACGTGAATTT", "relative binding free energy": 0.28}
{"sequence": "GGGTCCACGTGTCGTT", "relative binding free energy": 0.11}
{"sequence": "TAGTACACGTGTAGCT", "relative binding free energy": 0.22}
{"sequence": "TACGGCACGTGTATTG", "relative binding free energy": -0.15}
{"sequence": "TGCGGCACGTGGGGAA", "relative binding free energy": -0.26}
{"sequence": "TGGTTCACGTGCCAGG", "relative binding free energy": 0.14}
{"sequence": "ATTCTCACGTGAGGGA", "relative binding free energy": 0.32}
{"sequence": "GCTGGCACGTGTATGA", "relative binding free energy": 0.03}
{"sequence": "TGGTTCACGTGGAATA", "relative binding free energy": 0.24}
{"sequence": "TTTAACACGTGGGTGA", "relative binding free energy": -0.1}
{"sequence": "TGAGGCACGTGATTTC", "relative binding free energy": -0.02}
{"sequence": "GCACGCACGTGGTGTG", "relative binding free energy": -0.23}
{"sequence": "TAAGGCACGTGTAGGA", "relative binding free energy": -0.05}
{"sequence": "TTTGTCACGTGGAATG", "relative binding free energy": 0.21}
{"sequence": "TGCTTCACGTGCGCGG", "relative binding free energy": 0.26}
{"sequence": "TGGGACACGTGCGGGT", "relative binding free energy": 0.05}
{"sequence": "TGCTGCACGTGGATAG", "relative binding free energy": -0.13}
{"sequence": "GGGTGCACGTGTTCTT", "relative binding free energy": 0.02}
{"sequence": "CACGTCACGTGAGTGG", "relative binding free energy": 0.31}
{"sequence": "GATGTCACGTGGTGAG", "relative binding free energy": 0.1}
{"sequence": "GATAGCACGTGGTGCA", "relative binding free energy": 0.11}
{"sequence": "TGTGGCACGTGTCCCG", "relative binding free energy": -0.07}
{"sequence": "TGGAGCACGTGCCGGG", "relative binding free energy": -0.25}
{"sequence": "AGTTGCACGTGCAGGG", "relative binding free energy": -0.01}
{"sequence": "GTGTGCACGTGATACG", "relative binding free energy": 0.07}
{"sequence": "CGATGCACGTGATAGG", "relative binding free energy": 0.07}
{"sequence": "GAGGACACGTGAGCGT", "relative binding free energy": 0.33}
{"sequence": "TGATTCACGTGGTAAG", "relative binding free energy": 0.17}
{"sequence": "TATCACACGTGTGGGT", "relative binding free energy": 0.12}
{"sequence": "TCTTGCACGTGGGATG", "relative binding free energy": -0.17}
{"sequence": "ATACACACGTGTTTTT", "relative binding free energy": 0.01}
{"sequence": "GGGCTCACGTGTTGGC", "relative binding free energy": 0.28}
{"sequence": "GAGTTCACGTGTTTTT", "relative binding free energy": 0.43}
{"sequence": "GTTGGCACGTGCATGA", "relative binding free energy": -0.15}
{"sequence": "GTTGTCACGTGATCTT", "relative binding free energy": 0.28}
{"sequence": "GTAATCACGTGCTTTT", "relative binding free energy": 0.19}
{"sequence": "TTGAACACGTGTTATT", "relative binding free energy": 0.06}
{"sequence": "TTATGCACGTGGCGTG", "relative binding free energy": -0.13}
{"sequence": "TTACTCACGTGGGTGT", "relative binding free energy": 0.14}
{"sequence": "TGGGGCACGTGTCGTG", "relative binding free energy": -0.1}
{"sequence": "TCTGACACGTGGGTGG", "relative binding free energy": -0.03}
{"sequence": "GGGGACACGTGGGAGT", "relative binding free energy": -0.09}
{"sequence": "GTTTCCACGTGTAGCG", "relative binding free energy": 0.29}
{"sequence": "TGGTGCACGTGTGCTC", "relative binding free energy": 0.01}
{"sequence": "TTAGGCACGTGGCGGA", "relative binding free energy": -0.22}
{"sequence": "GCAGGCACGTGGCGGT", "relative binding free energy": -0.09}
{"sequence": "GGTGTCACGTGCCGTG", "relative binding free energy": 0.03}
{"sequence": "TTCTACACGTGTGTGA", "relative binding free energy": 0.19}
{"sequence": "GGCGGCACGTGGGTGC", "relative binding free energy": -0.24}
{"sequence": "TTAGGCACGTGCGATG", "relative binding free energy": -0.19}
{"sequence": "TGATTCACGTGGAGAT", "relative binding free energy": 0.26}
{"sequence": "CGTTCCACGTGGTATT", "relative binding free energy": 0.19}
{"sequence": "GTGTGCACGTGTATAT", "relative binding free energy": 0.12}
{"sequence": "GATGACACGTGGTGTT", "relative binding free energy": 0.07}
{"sequence": "GATGTCACGTGCTTGG", "relative binding free energy": 0.11}
{"sequence": "TAGGTCACGTGGTAGT", "relative binding free energy": 0.06}
{"sequence": "GCTGTCACGTGTCGGT", "relative binding free energy": 0.21}
{"sequence": "TTCTCCACGTGTTTAT", "relative binding free energy": 0.14}
{"sequence": "GGGTCCACGTGGTTGC", "relative binding free energy": 0.08}
